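Method: 48-hour compound exposure of cells in 96-well plates, five concentrations, linear interpolation of endpoints. Here, GI50 denotes the concentration required for 50% inhibition of growth. TGI: total growth inhibition.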
Tested on: NCI-H322M lung
Experiment: inhibition of tumour cell growth, NCI panel, 48 h

Row | Compound | GI50 | TGI
1 | Oc1ccc(-c2nnc(SCc3ccc(O)c4ncccc34)o2)cc1 | 1430 nM | > 52600 nM
2 | Oc1ccc(CSc2nnc(-c3cnccn3)o2)c2cccnc12 | 1510 nM | > 100000 nM
3 | NS(=O)(=O)c1ccc(Nc2nc(Nc3ccccc3)nc(-n3nc(-c4ccccc4)cc3-c3ccccc3)n2)cc1 | 2780 nM | 29900 nM

— PubChem BioAssay (NCI)
